# Measured values as given in PubChem BioAssay (Tox21).
# “And” between values parts separate entries of the source, which are not always exact repeats. Equal values may be shown once. This list was built around the results that the source calls inconclusive (neither active nor inactive); the mix of calls is not that of the screen. A potency beside an inconclusive call is a rough fit, not a confirmed value. A structure can be active in one record and inactive in another. The source made the active and inactive calls. Calls come from the whole dose curve; as a rule, active = well fitted cell-killing curve with a large enough effect in the repeat runs; inconclusive = weak or mixed curves, or effect the other way; inactive = no such curve, though single readings can be large or run the other way.
# Assay: qHTS assay to identify small molecule agonists of the farnesoid-X-receptor (FXR) signaling pathway - cell viability counter screen (AID 743218); note: nearly all actives have a fitted effect of over 45% in size
# Conditions: FXR-bla HEK293T viability, CellTiter-Glo luminescence, 16 h; viability change, negative = cytotoxic: at 62.6 µM (top of the series) unless noted
# Description: U.S. Tox21 Program National Center for Advancing Translational Sciences [NCATS] NIH Chemical Genomics Center [NCGC] U.S. Environmental Protection Agency [EPA] National Institutes of Environmental Health Sciences [NIEHS] National Toxicology Program [NTP] U.S. Food and Drug Administration [FDA] Tox21 Assay Overview: The farnesoid-X-receptor (FXR), a nuclear hormone receptor, is highly expressed in liver, intestine, kidney and adrenal cortex. Natural ligands of FXR are the bile acids (Cholic acid, Chenodeoxy cholic acid etc). FXR is an important regulator of diverse metabolic pathways, including the bile acid homeostasis, lipid and glucose metabolisms. FXR regulates the expression of target genes by binding either as a monomer or as a heterodimer with the retinoid X receptor (RXR). Numerous studies have reported that FXR exerts protective function during cholestasis, diabetes, liver regeneration, and cancer. To identify compounds that activate FXR signaling, GeneBLAzer FXR-UAS-bla HEK 293T cell line (Invitrogen, Carlsbad, CA) containing a beta-lactamase reporter gene under the control of a UAS response element was used to screen the Tox21 10K compound library. The cytotoxicity of the Tox21 compound library against the FXR-bla cell line was tested in parallel by measuring the cell viability using CellTiter-Glo assay in the same wells.
# Tox21 Assay Protocol Summary: FXR-bla cells were dispensed at 5000 cells/5uL/well in 1536-well black wall/clear bottom plates using a Multidrop Combi (Thermo Fisher Scientific, Waltham, MA) dispenser. After the assay plates were incubated at 37 C and 5% CO2 for 5 h, 23 nL of compounds dissolved in DMSO, positive controls or DMSO only was transferred to the assay plate by a Pintool station (Kalypsys, San Diego, CA). The assay plates were incubated at 37C for 16 h. After 1 uL of LiveBLAzerTM B/G FRET substrate was added using a Bioraptr Flying Reagent Dispenser (FRD) workstation (Beckman Coulter, Indianapolis, IN), the plates were incubated at room temperature for 2 h, and fluorescence intensity was measured by an Envision plate reader (PerkinElmer, Shelton, CT). For cell viability readout that measures cytotoxicity, 4uL/well of CellTiter-Glo reagent was added into the assay plates using a Bioraptr FRD. After 30 min incubation at room temperature, the luminescence intensity in the plates was measured using a ViewLux plate reader (PerkinElmer).
# % is set by controls: 0 for no effect and ±100 for the full control effect; potency is the fitted concentration of half-maximal effect; tags give direction and shape of the fitted curve.
Compound,Potency,"viability change, negative = cytotoxic"
CC(C)Oc1cc(-n2nc(C(C)(C)C)oc2=O)c(Cl)cc1Cl,inactive and active: 38.9 µM,
CN(C)C(=S)SSC(=S)N(C)C,active: 121 nM and active: 30.9 nM and active: 841 nM,
CCCCCCCCCCCCCCn1cc[n+](C)c1,active: 21.9 µM and inconclusive: 61 µM [cytotoxic],
CCOC(=O)c1ccccc1C(=O)OCC,,inconclusive: 31.6% [at 81.1 µM]
C=CC1(C)OC(=O)N(c2cc(Cl)cc(Cl)c2)C1=O (stereo not given),"inconclusive: 0.218 µM [rising, full curve]",
Cc1cc(C)c(C(=O)P(=O)(C(=O)c2c(C)cc(C)cc2C)c2ccccc2)c(C)c1,"inconclusive: 0.275 µM [rising, full curve, poor fit]",
CC(C)NC(=O)N1CC(=O)N(c2cc(Cl)cc(Cl)c2)C1=O,"inconclusive: 0.0031 µM [rising, full curve, poor fit]",
O=NN1CCCCC1,,inactive: -3.12%
Nc1ccccc1-c1ccccc1,"inconclusive: 6.88 µM [cytotoxic, full curve]",
CC(C)[C@H](C(=O)O[C@H](C#N)c1cccc(Oc2ccccc2)c1)c1ccc(Cl)cc1,"inconclusive: 0.0012 µM [rising, full curve, poor fit]",
CN(C)S(=O)(=O)N(SC(F)(Cl)Cl)c1ccccc1,active: 38.9 µM,
ClC=C(Cl)Cl,"inconclusive: 2.79 µM [rising, full curve]",
O=P(OCC(Br)CBr)(OCC(Br)CBr)OCC(Br)CBr (stereo not given),"inconclusive: 62.5 µM [cytotoxic, single point] and inconclusive: 52.2 µM [cytotoxic, single point]",
CC1(C)CN=C(NN=C(/C=C/c2ccc(C(F)(F)F)cc2)/C=C/c2ccc(C(F)(F)F)cc2)NC1,active: 11 µM,
CNC(=O)CSP(=O)(OC)OC,,inactive: -12.9%
CC(C)(C)c1cc(O)ccc1O,"inconclusive: 2.75 µM [rising, full curve, poor fit]",
Clc1ccc(C(c2ccc(Cl)cc2)C(Cl)Cl)cc1,"inconclusive: 62.7 µM [cytotoxic, single point] and inconclusive: 54.9 µM [cytotoxic, single point]",
O=C(CCl)CCl,active: 54.9 µM,
C=CC(=O)OCCCCOC(=O)C=C,active: 54.9 µM,
CCC(=O)O[C@H]1CC[C@H]2[C@@H]3CCC4=CC(=O)CC[C@]4(C)[C@H]3CC[C@]12C,active: 54.9 µM,

Compound,Potency,"viability change, negative = cytotoxic"
CC(C)(C)CC(C)(C)c1ccc(O)cc1,active: 54.8 µM,
CCc1nn(C)c(C(=O)NCc2ccc(C(C)(C)C)cc2)c1Cl,active: 49 µM,
COC(=O)c1sccc1S(=O)(=O)NC(=O)Nc1nc(C)nc(OC)n1,"inconclusive: 0.223 µM [rising, full curve]",
CCOP(=S)(OCC)OC(Cl)C(Cl)(Cl)Cl (stereo not given),,inactive: -10.5%
N#CCCC(Br)(C#N)CBr (stereo not given),"inconclusive: 54.9 µM [cytotoxic, single point]",
S=C=Nc1cccc2ccccc12,"inconclusive: 34.3 µM [cytotoxic, partial curve]",
CC(C)(O)c1cnn2c(-c3ccc(F)c(-c4c(F)cccc4C#N)c3)cnc2n1,"inconclusive: 61.6 µM [cytotoxic, single point]",
Clc1ccc(-c2ccc(Cl)c(Cl)c2Cl)c(Cl)c1Cl,active: 46.6 µM,
CC(C)C(=O)OCC(C)(C)C(OC(=O)C(C)C)C(C)C (stereo not given),"inconclusive: 24.8 µM [cytotoxic, full curve, poor fit]",
O=C1C2CC=CCC2C(=O)N1SC(Cl)(Cl)Cl (stereo not given),active: 21.5 µM,
COC(=O)c1ccccc1N,inactive,
N#CN=C1SCCN1Cc1ccc(Cl)nc1,,inactive: -11.3%
c1ccc(P(c2ccccc2)c2ccccc2)cc1,inactive,
O=S1OCC2C(CO1)C1(Cl)C(Cl)=C(Cl)C2(Cl)C1(Cl)Cl (stereo not given),"inconclusive: 61.7 µM [cytotoxic, single point] and active: 38.9 µM",
CC(C)[C@H](C(=O)OC(C#N)c1cccc(Oc2ccccc2)c1)c1ccc(OC(F)F)cc1 (stereo not given in full),"inconclusive: 61.6 µM [rising, partial curve, poor fit]",
CC1CCC(C(C)C)C(OC(=O)c2ccccc2N)C1 (stereo not given),active: 60.8 µM,
CN(C)C(=S)S,"inconclusive: 15.8 µM [cytotoxic, full curve, poor fit] and active: 386 nM and inconclusive: 3.09 µM [cytotoxic, full curve]",
CCCN(CCC)c1c([N+](=O)[O-])cc(S(N)(=O)=O)cc1[N+](=O)[O-],inconclusive: 34.3 µM [cytotoxic],
CN1CCc2cc(Cl)c(O)cc2[C@H]2c3ccccc3CC[C@@H]21,,inconclusive: -33.1% [cytotoxic]
O=C1c2ccccc2C(=O)C1C(=O)C(c1ccccc1)c1ccc(Cl)cc1 (stereo not given),active: 38.9 µM,
